Publication PMC5775257
Changes are numbered by the printed parent chain. No constants are given. Whether binding was seen depends on the method and setting. Binding seen in cells or lysates may run through a third protein. Some results given as binding are weak or reduced against the parent protein; the word gives no strength.

Assays:
Experiment in all cases: co-IP; anti-Roquin-1/2 (Q4-2) coupled to tosylactivated Dynabeads; endogenous proteins from MEF cell lysates of the indicated genotypes; immunoblot
[1] = biological target: T1, endogenous Roquin-1 (MEF cells) (mouse (endogenous in MEF)) (UniProt Q4VGL6)
T1 sequence: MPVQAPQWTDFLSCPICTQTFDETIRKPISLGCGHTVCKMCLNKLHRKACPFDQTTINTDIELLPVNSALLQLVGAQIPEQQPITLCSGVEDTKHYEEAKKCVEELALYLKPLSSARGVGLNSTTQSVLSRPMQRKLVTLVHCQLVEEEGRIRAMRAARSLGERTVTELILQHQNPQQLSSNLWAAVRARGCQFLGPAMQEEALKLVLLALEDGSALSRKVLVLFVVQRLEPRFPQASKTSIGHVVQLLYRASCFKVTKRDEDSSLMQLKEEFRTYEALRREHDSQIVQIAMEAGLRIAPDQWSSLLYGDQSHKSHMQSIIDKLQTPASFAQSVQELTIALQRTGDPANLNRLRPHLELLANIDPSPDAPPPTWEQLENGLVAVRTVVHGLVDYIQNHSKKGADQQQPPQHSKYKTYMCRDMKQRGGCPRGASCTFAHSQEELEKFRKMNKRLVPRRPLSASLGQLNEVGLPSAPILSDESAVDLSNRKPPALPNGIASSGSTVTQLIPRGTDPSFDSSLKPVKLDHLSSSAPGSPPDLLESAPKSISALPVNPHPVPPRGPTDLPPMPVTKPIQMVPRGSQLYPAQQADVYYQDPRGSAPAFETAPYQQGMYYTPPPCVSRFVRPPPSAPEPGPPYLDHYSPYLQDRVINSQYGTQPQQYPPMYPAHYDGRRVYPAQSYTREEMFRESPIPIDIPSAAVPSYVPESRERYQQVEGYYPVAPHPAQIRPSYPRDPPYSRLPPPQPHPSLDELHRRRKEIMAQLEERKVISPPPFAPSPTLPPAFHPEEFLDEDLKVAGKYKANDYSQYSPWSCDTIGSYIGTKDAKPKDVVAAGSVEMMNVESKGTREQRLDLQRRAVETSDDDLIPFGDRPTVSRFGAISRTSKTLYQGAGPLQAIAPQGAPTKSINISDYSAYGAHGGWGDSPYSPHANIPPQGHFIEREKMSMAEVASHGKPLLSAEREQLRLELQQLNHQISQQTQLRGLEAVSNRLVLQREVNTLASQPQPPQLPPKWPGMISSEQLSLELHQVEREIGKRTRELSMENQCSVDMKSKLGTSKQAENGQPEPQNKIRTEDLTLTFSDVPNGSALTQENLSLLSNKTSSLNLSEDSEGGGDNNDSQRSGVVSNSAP

[2] = biological target: T2, endogenous Roquin-2 (MEF cells) (mouse (endogenous in MEF)) (UniProt P0C090)
T2 sequence: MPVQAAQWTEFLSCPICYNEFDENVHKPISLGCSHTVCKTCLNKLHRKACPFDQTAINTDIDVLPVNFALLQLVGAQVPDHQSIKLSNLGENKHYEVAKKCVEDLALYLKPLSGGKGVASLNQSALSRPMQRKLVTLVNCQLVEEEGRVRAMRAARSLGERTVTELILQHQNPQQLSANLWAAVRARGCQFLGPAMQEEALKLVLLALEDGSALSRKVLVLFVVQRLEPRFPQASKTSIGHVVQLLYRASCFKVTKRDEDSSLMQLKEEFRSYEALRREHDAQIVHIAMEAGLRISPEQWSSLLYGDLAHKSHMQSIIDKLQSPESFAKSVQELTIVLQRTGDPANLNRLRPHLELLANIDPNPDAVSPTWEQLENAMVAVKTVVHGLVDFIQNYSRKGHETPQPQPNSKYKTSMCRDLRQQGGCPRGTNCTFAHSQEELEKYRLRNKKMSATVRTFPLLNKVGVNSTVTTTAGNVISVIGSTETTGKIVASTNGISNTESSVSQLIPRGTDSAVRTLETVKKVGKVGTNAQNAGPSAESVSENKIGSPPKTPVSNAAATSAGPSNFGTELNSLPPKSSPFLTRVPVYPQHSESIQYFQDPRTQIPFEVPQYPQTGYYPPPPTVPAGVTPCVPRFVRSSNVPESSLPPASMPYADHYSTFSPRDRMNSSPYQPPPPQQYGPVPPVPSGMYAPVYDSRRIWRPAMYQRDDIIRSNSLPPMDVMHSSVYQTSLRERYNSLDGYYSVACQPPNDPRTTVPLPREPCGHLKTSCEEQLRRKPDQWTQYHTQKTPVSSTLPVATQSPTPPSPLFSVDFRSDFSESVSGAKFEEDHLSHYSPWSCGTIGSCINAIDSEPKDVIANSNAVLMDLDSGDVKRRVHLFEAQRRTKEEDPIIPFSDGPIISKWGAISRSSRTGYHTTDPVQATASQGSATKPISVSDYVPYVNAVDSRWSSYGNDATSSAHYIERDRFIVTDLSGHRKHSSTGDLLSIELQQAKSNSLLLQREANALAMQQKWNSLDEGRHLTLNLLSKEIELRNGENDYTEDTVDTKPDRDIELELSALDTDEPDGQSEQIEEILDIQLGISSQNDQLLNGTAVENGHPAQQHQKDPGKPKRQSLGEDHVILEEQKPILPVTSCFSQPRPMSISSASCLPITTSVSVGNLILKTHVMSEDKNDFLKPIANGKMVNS

[3] = biological target: T3, sanroque mutant of Roquin-1 (Roquin-1 M199R) (mouse (endogenous in MEF)) (UniProt Q4VGL6)
T3 sequence: T1 sequence with M199R

binding [1]: binds
binding [2]: binds
binding [3]: binds
B1: endogenous Nufip2 (MEF cells) (protein, UniProt Q5F2E7 1-692)
chain: MEEKPGQPQPQHHHSHHHPHHHPQQQQQQQSHHHHHYYFYNHSHNHHHHHHHQQPHQYLQHGAEGSPKAQPKPLKHEQKHTLQQHQETPKKKTGYGEINGNAGEREISLKSLSSDEATNPISRVLNGNQQVVETSLKQTVKTSTFGKAGIKTKNFIQKNSMDKKNGKSYENKSGETQAVDKTDTIAIPNGVITSSSGYITNGYMSKGADNDGSGSESGYTTPKKRKARRNSAKGCENLNLVQDKIMQETSVPALKQGLETLKPDYSEQKGMRVDGSKPIWKYETGPGGTSRGKPAMGDVLRKSSDIKPGLSSKKFDDRPKGKHASAAASKEDSWTLFKPPPVFPVDNSSAKIVPKISYASKVKENLNKTVQNSSVSPSSSSSSSSTGETQTQSSSRLSQVPMSALKSVTSASFSNGPVLAGTDGSVYPSGGQPLLTTAANTLTPISTGTDSVLQDMSLASAAVEQIKSSLFIYPSNMQTVLLSAQVDLPSQTDQQNLGDIFQNQWGLSFINEPSAGPETVIGKSSDHKVMEVTFQGEYPATLVSQGAEIIPSGTEHPVFPKAYELEKRTSPQVLGHILKPGTTESGALSLDPSHIGDLQKADTSSQGALVFLSKDYEIENQNPLASPTNTLLGSAKEQRYQRGLERNDSWGSFDLRAAIVYHTKEMESIWNLQKQDPKRIITYNEAMDSPDQ
